Paper PMC12136788
Some of the results follow.

T1: UNK ZnF1-3 (human, UniProt Q9C0B0 31-174)
T1 sequence: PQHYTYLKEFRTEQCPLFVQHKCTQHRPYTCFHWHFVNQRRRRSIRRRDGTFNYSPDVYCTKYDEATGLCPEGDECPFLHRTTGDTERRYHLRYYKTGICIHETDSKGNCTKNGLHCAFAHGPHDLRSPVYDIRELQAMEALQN

B1: chr7:141450121:141450122:+_ENSG00000106028_ENST00000265304|hu_mus|hu_hu_hu_mus_True|88_88 (ssRNA)
RNA: GGGAGUUCUACAGUCCGACGAUCUCAUCCGUUCUAUGCCUUUUCUUUCGUCUGGUCACUCAGAAAUAUAAUGUUAUCAGCUAUGAUUGUUGUUGCUUGCCGCCUCACAUUGUUUUUAUCCAUGUACUCGCCAUAGUCCACUUUCAACAGAGGAUUGAGCAUCA
B2: chr13:48664549:48664550:-_ENSG00000136146_ENST00000378586|hu_mus|motif|central (ssRNA)
RNA: GGGAGUUCUACAGUCCGACGAUCCUGGUUUUCCUCUUCCAGCUGUAAUAGCUUCUGAUUUCUUGAAAUUGCAAGCAUUUCGGUGAGUUCCCUCGACAAGACCUCCAGAUCUUCCAGCGCAGACAGAAGCCGCUCUCGCGUACUCAACAGAGGAUUGAGCAUCA
B3: chr1:39494564:39494565:+_ENSG00000168653_ENST00000372967|hu_hu|hu_hu_hu_mus_True|68_78 (ssRNA)
RNA: GGGAGUUCUACAGUCCGACGAUCAUGCAUUCGCCUCAUCGUUUUGUACCGAAGCAAACACUCUACGAAAUCAUCAUACUCUAUCUUGCACUCCUUUUUCGCCCGGGUCCCACCGAUCCCGUGUGCACACUCUAUCCACUCUUUCAACAGAGGAUUGAGCAUCA
B4: chr8:117866615:117866616:-_ENSG00000164754_ENST00000297338|hu_mus|motif|central (ssRNA)
RNA: GGGAGUUCUACAGUCCGACGAUCAAGCUUCUUGGUUGGCGGAGCCAGGUCCAGAGUCGUAACAAUAUCAGAAUAAUCGCGGAGCUGGGCUCUAAUGGUCUUACUAUCCAAUUCUUUGACACUGUCAACAAUCAGCUUCCUCUUCAACAGAGGAUUGAGCAUCA
B5: chr12:39756943:39756944:-_ENSG00000139116_ENST00000544797|hu_mus|hu_hu_hu_mus_False|8_108 (ssRNA)
RNA: GGGAGUUCUACAGUCCGACGAUCGGUUUGGCUAUUACCCCCAAGGGAAUCCUGCAAGAGUCUUGUCAGCUUAGAGUCUCUGUAAGGGACAUGGGUGGCUCUCUUGCUCUUGUCCCCCAAGGCGCUGAUUACAUUGCCAAGAGCCAACAGAGGAUUGAGCAUCA
B6: chr15:103023306:103023307:-_ENSMUSG00000009575_ENSMUST00000118152|mus_mus|motif|central (ssRNA)
RNA: GGGAGUUCUACAGUCCGACGAUCAGAAACUCACCAAGGUCACUAAGUACUUCCAAACUUGGAAGUAGCUCAGUGAGGGCGGAAAAAACUUCGACUGAAGGUAUCCUCCACAGGCAAUCCUAAAGGAGUUGAUCAGCUCUGAUCCAACAGAGGAUUGAGCAUCA
B7: chr17:21098601:21098602:+_ENSMUSG00000007564_ENSMUST00000007708|mus_hu|FALSE|FALSE (ssRNA)
RNA: GGGAGUUCUACAGUCCGACGAUCGGCCAAGACCUUGGGGAUGAUUGUGGCAUGGGCCCACUCCUUCCCAAACUUUUCCACUAGCUUCUUCAGGUUGCUGGUGGCUGCCUCGCGGAUGGCAUAUACAUGAUCCACAAGCCAGGCCAACAGAGGAUUGAGCAUCA
B8: chr8:87366250:87366251:-_ENSMUSG00000003814_ENSMUST00000003912|mus_mus|FALSE|FALSE (ssRNA)
RNA: GGGAGUUCUACAGUCCGACGAUCGAGCAGAUGAAAUCUCAAGCCUAGGGCUUCUCCUCUACACCCCUGUUCCUAGAGUUGGAGGGUAGUGACCAAAAGAUGGAGAAAGGGAGGGACAGAAGGAAAAGAUGUUGAUUCAAAAAUCAACAGAGGAUUGAGCAUCA
B9: chr1:39494447:39494448:+_ENSG00000168653_ENST00000372967|hu_mus|hu_hu_hu_mus_False|58_88 (ssRNA)
RNA: GGGAGUUCUACAGUCCGACGAUCGCACCGAGCGGCGUUCUUAUAGGGCUGUUCACCGCUUAGGAACAUAAAGUGCCGAUCUAUGUUGAUGCCCAGCUUUUUCUGUAUGUCAAGGAAAGGCAUGGCUCUGCAGUGCCCUUGUCACAACAGAGGAUUGAGCAUCA
B10: chr2:47387610:47387611:-_ENSG00000143933_ENST00000272298|hu_hu|motif|central (ssRNA)
RNA: GGGAGUUCUACAGUCCGACGAUCACGCAGAGUUACAACUCCACACUUCAACAACAACAUGCUGACAGUUCCUAAAGAAAACGGCUUUAAAAAAGGCAUAACCCAGAUGUUCCCUCAUUUGACCAACUCCAUCUAAGUUUAGAUCAACAGAGGAUUGAGCAUCA
B11: chr17:65740002:65740003:+_ENSG00000130935_ENST00000581375|hu_hu|hu_hu_hu_mus_False|78_78 (ssRNA)
RNA: GGGAGUUCUACAGUCCGACGAUCAACAAAUCUUUCUUCCCUGGACGAACAGGAAGACAUAAAAGAGAAAAAAUAUAUAUCCAUCAAGUUAGGUGUGGUGGCCACACCUUUACUCCCAGCACUUUGGGAGGUGGAUCUCUGAGUCAACAGAGGAUUGAGCAUCA
B12: chr13:97419175:97419176:-_ENSMUSG00000021670_ENSMUST00000022176|mus_mus|motif|central (ssRNA)
RNA: GGGAGUUCUACAGUCCGACGAUCUGAAACUUUACAUACAACAGCAAAGGCAAUCUUCCACAAUAAUACUGACACAAUCACGGAGAGGCUCCCAUGCUGCCGCGGCACUCUUGGAAUGUCUUUCAGAGUCCAUCUUCUACACAACAACAGAGGAUUGAGCAUCA
B13: chr1:217782781:217782782:-_ENSG00000092978_ENST00000366934|hu_hu|motif|central (ssRNA)
RNA: GGGAGUUCUACAGUCCGACGAUCUUUUGAUGUGUUUCAGGUAUCAGACAAAGCAGAUAAUUUAAAAGGUAAAUGAUUCGGCGGGUGCAGACUAGUUAUCACUGUGGCUAAUUUAAAACGAGGAUGAUUUUUGCAGUACAAUGACAACAGAGGAUUGAGCAUCA
B14: 95091120_95091240_1271_3pUTR_ENSG00000164292_ENST00000379982|human|control|control (ssRNA)
RNA: GGGAGUUCUACAGUCCGACGAUCAGAGAACGAUCUUGUGGGCCUCUACAACUUUCUUUAAAUUGGGGUUGUAAAAUACCACGUCCACACACUGGCAGCAGAACAGCAAGUUAUUUAAGUCAGAGUUAUAAUGUGACGCUUCAGCAACAGAGGAUUGAGCAUCA
B15: 75855418_75855538_1702_CDS_ENSG00000035403_ENST00000372755|human|control|control (ssRNA)
RNA: GGGAGUUCUACAGUCCGACGAUCAGCCAGCUGGGCUGUCAGCUGGUCCACUCGGUCACACUUGGCGAGAAGAUCUUGCCGAUAAGGCCCCAUCAUAACAUUAGCCAGACGAUGCCCUUCGGCCACAAGCCCCCGGAUGGCAGCCAACAGAGGAUUGAGCAUCA
B16: 65113432_65113740_929_CDS_ENSG00000133884_ENST00000252268|human|control|control (ssRNA)
RNA: GGGAGUUCUACAGUCCGACGAUCAAAUUGGAGGCAAGAUGGAUGCCCUGAGCGGCCACAGUCAGAACAGGACACCAGCUCCUCGGGUUGUCCCGUCUUCUUGUUAAUCUUUGAGUCCCCCAGGCAGAAGUCACAGUAGUUGUUCAACAGAGGAUUGAGCAUCA
B17: chr7:80921385:80921386:+_ENSMUSG00000078670_ENSMUST00000107456|mus_hu|FALSE|FALSE (ssRNA)
RNA: GGGAGUUCUACAGUCCGACGAUCAGGCGAAACUGCCUUCCUGGCAGGCGGAGGCUGCCGAGCUCCCAUGCCCCUUCCCACAUAUCCCAACUCUUCUCAGAAAACUGAAGAACCGAAGAUGGAGGUGAGUCAGGAAAGGCUGGACAACAGAGGAUUGAGCAUCA
B18: 72668181_72680867_410_3pUTR_ENSMUSG00000031201_ENSMUST00000033544|mouse|control|control (ssRNA)
RNA: GGGAGUUCUACAGUCCGACGAUCUAUGAGGGUGGGAAUGAUACCAGCCAACAACUCUCAUGGGACGACCUGUUAGUUCAGCCAACCUUUCUGCCUCUGUUGAAGCUGCAGACAGCUGCUCUGGAGAAAUUUCUACACGGUCCUCAACAGAGGAUUGAGCAUCA
B19: chr14:62153831:62153832:-_ENSMUSG00000021930_ENSMUST00000100496|mus_hu|FALSE|FALSE (ssRNA)
RNA: GGGAGUUCUACAGUCCGACGAUCCCCAAAUGCUUAUUUUCAUUUCACAAAACAUAAAGUAUUUUAAAUCACAACUUCAGGGUGGUAUACUGAAUACAUUGGUUCCUUAGACAGCAUCAACAAGCAUAUUUUUAAGAAUAUAUUCAACAGAGGAUUGAGCAUCA
B20: chr11:87794976:87794977:-_ENSMUSG00000020483_ENSMUST00000020775|perfect_dup|motif|central (ssRNA)
RNA: GGGAGUUCUACAGUCCGACGAUCGCAACGCCGCCUGCUUGCCAUCGCUGCCGCCGCCACGGACACCUUCGCCUCGGCCACCGGGCCCGACUUGAAGAGGAGGAUUGCAACUUGACCCAAGUAAAAAUAGAUGAAGUGCUUUGUCAACAGAGGAUUGAGCAUCA
B21: 56458844_56458964_4621_CDS_ENSG00000151914_ENST00000244364|human|control|control (ssRNA)
RNA: GGGAGUUCUACAGUCCGACGAUCAUGCACUUUCAGUUCCUUCAUGUUCUUUUGCAGUUUCUCUUUUUCUUCAGGAGAGAGAUACUGACCCUGUUUCUCAAGCAACACUUGUGCAGACUGAGUGGCUAUGAUCACUGCUUGGUGCAACAGAGGAUUGAGCAUCA
B22: chr7:97326020:97326021:+_ENSMUSG00000039361_ENSMUST00000049537|mus_mus|FALSE|FALSE (ssRNA)
RNA: GGGAGUUCUACAGUCCGACGAUCGGUUGGCUGCUGCAAGUCAAGCAGGUCAUUUGGCAGCUUAGAUGUGCUGUUAGAAGAACUAGGGGUAGAAAAUAUGUCAAUGGCUGGUGCAGUCAUUAUUCCCCCUGCUGAGGUGGACACCAACAGAGGAUUGAGCAUCA

Target: T1, UNK ZnF1-3
Experiment: nsRBNS (natural sequence RNA bind-n-seq); RBNS binding buffer (assumed for nsRBNS): 25 mM Tris pH 7.5, 150 mM KCl, 3 mM MgCl2, 0.01% Triton X-100, 500 ug/ml BSA, 20 U/ml SUPERase-In, 4 C; UNK is unkempt and MSI1 is Musashi-1; names of the RNAs are library labels; protein concentration not given here; high values mean tight binding

Binder	binding signal [enrichment R]
B1	0.413
B2	0.759
B3	0.667
B4	0.869
B5	0.65
B6	1.04
B7	1.02
B8	1.61
B9	0.701
B10	1.06
B11	0.913
B12	0.999
B13	1.8
B14	1.51
B15	0.831
B16	0.884
B17	0.854
B18	1.19
B19	1.5
B20	1.82
B21	0.602
B22	1.07
